The supplement of paper PMC8792480
The other results are listed elsewhere or left out. Single values are uncertain, as repeats are few or missing.
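Note: surface PD-L1 on NSCLC cells stained with a PE-labelled anti-human PD-L1 antibody before flow cytometry, screening a library of roughly two hundred mostly kinase and epigenetic inhibitors.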

What follows are molecules tested on A549 (assay: cell-surface PD-L1 MFI ratio relative to radiation alone (isotype-subtracted); higher = higher PD-L1 surface expression). Conditions: inducer: radiation 8 Gy; 10 µM; 24 h.
Protocol: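 A549 and H460 NSCLC cells were treated with each library drug at 10 uM, then with radiation (8 Gy) or cisplatin (4 uM), and incubated for 24 h. Cell-surface PD-L1 was measured by flow cytometry as an MFI ratio: (MFI drug+inducer - MFI isotype)/(MFI inducer alone - MFI isotype). Hits were defined as ratio < 0.75.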
COc1cc([C@@H]2c3cc4c(cc3[C@H](O)[C@H]3COC(=O)[C@@H]23)OCO4)cc(OC)c1OC [Picropodophyllin (PPP)] was tested, and the “cell-surface PD-L1 MFI ratio” value was inactive: 1.73.
COC(=O)[C@@H](N)CCCNC(=N)N[N+](=O)[O-] was tested, and the “cell-surface PD-L1 MFI ratio” value was inactive: 0.804.
For CN1CCN(c2ccc([N+](=O)[O-])c3no[n+]([O-])c23)CC1, the “cell-surface PD-L1 MFI ratio” value was inactive: 0.979.
